From the supplement of paper PMC9446081 come the findings set out here.

In all, about 39,000 compounds went through this assay and about 220 (0.56%) showed activity. The list shows a part of the results.
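Note: static incubation at 37 °C against the wild-type strain, values averaged over two biological replicates.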

This assay deals with Escherichia coli K-12 BW25113. Kind of assay: relative growth (OD600 normalised to plate interquartile mean) (fraction); higher = less growth inhibition, active = 0.2 or less. The settings on record: 50 µM; LB; incubation time: overnight (16-24 h).
Take `C[C@@H]1CN([C@@H](C)CO)C(=O)Cc2cc(N(C)C)ccc2O[C@H]1CN(C)S(=O)(=O)c1ccc(F)cc1`: the relative growth is inactive: 0.982.

Regarding `COc1ccc(S(=O)(=O)N(C)C[C@@H]2OCCCC[C@@H](C)Oc3ccc(NC(=O)Nc4ccc(C(F)(F)F)cc4)cc3C(=O)N([C@H](C)CO)C[C@H]2C)cc1`, the relative growth is inactive: 1.03.

For `C[C@@H]1CN([C@@H](C)CO)C(=O)Cc2cc(NC(=O)CCN3CCOCC3)ccc2O[C@H]1CN(C)Cc1ccc2c(c1)OCO2`, the relative growth is inactive: 0.998.

In the case of `CN1CCN(C(=O)C[C@H]2CC[C@@H](NC(=O)Cc3ccccn3)[C@@H](CO)O2)CC1`, the relative growth is inactive: 0.987.

For `C[C@H]1CN([C@@H](C)CO)C(=O)c2cc(NC(=O)CCC(F)(F)F)ccc2O[C@@H]1CN(C)Cc1ccc(C(=O)Nc2ccccc2N)cc1`, the relative growth was inactive: 0.981.

Consider `COc1ccc(S(=O)(=O)N(C)C[C@@H]2Oc3ccc(NC(=O)CCN4CCOCC4)cc3CC(=O)N([C@H](C)CO)C[C@@H]2C)cc1`, for which the relative growth was inactive: 0.988.

`COc1cccc(S(=O)(=O)Nc2ccc3c(c2)[C@@H]2C[C@H](CC(=O)NCc4cccc(F)c4)O[C@H](CO)[C@@H]2O3)c1`: the relative growth is inactive: 0.99.

In the case of `CC(C)NC(=O)N(C)C[C@H]1OCCCC[C@H](C)Oc2ccc(NS(=O)(=O)c3cn(C)cn3)cc2C(=O)N([C@@H](C)CO)C[C@H]1C`, the relative growth is inactive: 0.975.

Turning to `COCCN(Cc1ccc(OC)cc1)c1c(C)nc2ccc(C(=O)Nc3ccc(Cl)c(Cl)c3)cn12`, the relative growth is inactive: 0.996.

As for `CC(=O)CC(c1ccccc1)c1c(O)c2ccccc2oc1=O` (stereo unspecified), the relative growth is inactive: 1.05.

`C[C@@H]1CCCCO[C@@H](CN(C)C(=O)Nc2ccc(F)cc2)[C@H](C)CN([C@@H](C)CO)C(=O)c2cc(NC(=O)C3CCCCC3)ccc2O1`: the relative growth is inactive: 1.02.

Turning to `C[C@H]1CCCCO[C@H](CN(C)Cc2ccc3c(c2)OCO3)[C@@H](C)CN([C@@H](C)CO)C(=O)c2cc(NC(=O)CCC(F)(F)F)ccc2O1`, the relative growth was inactive: 0.997.

As to `C[C@H](CO)N1C[C@H](C)[C@@H](CN(C)S(=O)(=O)c2ccccc2F)Oc2ncc(Br)cc2C1=O`, the relative growth is inactive: 0.983.

Regarding `Cc1noc(C)c1NC(=O)Nc1ccc2c(c1)CC(=O)N([C@H](C)CO)C[C@@H](C)[C@H](CN(C)C(=O)NC(C)C)O2`, the relative growth is inactive: 0.998.

Take `c1cc[n+](C[n+]2ccccc2)cc1`: the relative growth was inactive: 0.973.

In the case of `CCCC#Cc1ccc2c(c1)O[C@H](CN(C)C(=O)c1cnccn1)[C@@H](C)CN([C@H](C)CO)S2(=O)=O`, the relative growth is inactive: 0.989.

As to `COc1cccc(NC(=O)N(C)C[C@@H]2Oc3cc(C#Cc4ccncc4)ccc3S(=O)(=O)N([C@H](C)CO)C[C@H]2C)c1`, the relative growth was inactive: 0.985.

As to `NC(=O)CSc1ncn(-c2ccccc2)n1`, the relative growth was inactive: 0.987.

Turning to `CN1CC(=O)N2CCN(C(=O)c3ccc4n[nH]nc4c3)C[C@@H]2C1=O`, the relative growth was inactive: 0.994.

For the molecule `Cc1ccc2[nH]c(=O)c(C3=NN(C(=O)CCC(=O)O)[C@H](c4ccc(Br)cc4)C3)c(-c3ccccc3)c2c1`, the relative growth is inactive: 0.99.

Regarding `C[C@@H]1CN([C@H](C)CO)S(=O)(=O)c2ccc(-c3ccc(F)cc3)cc2O[C@H]1CN(C)C(=O)C1CCOCC1`, the relative growth is inactive: 0.922.

`C[C@@H]1CCCCO[C@@H](CN(C)C(=O)Nc2ccccc2)[C@H](C)CN([C@@H](C)CO)C(=O)c2cc(NC(=O)c3ccncc3)ccc2O1`: the relative growth was inactive: 0.977.

Turning to `O=c1oc2c(O)c(O)cc3c(=O)oc4c(O)c(O)cc1c4c23`, the relative growth is inactive: 0.84.

Turning to `C[C@H](CO)N1C[C@H](C)[C@H](CN(C)Cc2ccc3c(c2)OCO3)OCCCC[C@H](C)Oc2ccc(NC(=O)Nc3cccc4ccccc34)cc2C1=O`, the relative growth is inactive: 1.03.

As to `COc1ccc(NC(=O)Nc2ccc3c(c2)C(=O)N([C@H](C)CO)C[C@H](C)[C@@H](CN(C)C(=O)Cc2ccccc2)OCCCC[C@@H](C)O3)cc1`, the relative growth was inactive: 0.994.

On to `C[C@H](CO)N1C[C@H](C)[C@@H](CN(C)Cc2ccc(Cl)c(Cl)c2)Oc2ccc(NC(=O)CCCCCC(=O)Nc3ccccc3N)cc2CC1=O`, for which the relative growth is inactive: 0.995.

`C[C@@H]1CN([C@@H](C)CO)C(=O)c2cc(NC(=O)NC3CCCCC3)ccc2O[C@@H](C)CCCCO[C@@H]1CN(C)C(=O)Nc1ccccc1`: the relative growth was inactive: 1.

Turning to `COc1ccc(CN(C)C[C@@H]2OCCCC[C@@H](C)Oc3ccc(NC(=O)Nc4c(C)noc4C)cc3C(=O)N([C@@H](C)CO)C[C@@H]2C)cc1`, the relative growth is inactive: 0.97.

As to `CC(C)NC(=O)N(C)C[C@H]1OCCCC[C@H](C)Oc2ccc(NC(=O)C3CCCCC3)cc2C(=O)N([C@@H](C)CO)C[C@H]1C`, the relative growth is inactive: 1.01.

`C[C@H]1CN([C@@H](C)CO)C(=O)c2cc(NC(=O)Nc3ccccc3)ccc2O[C@H]1CN(C)Cc1ccc(C(=O)Nc2ccccc2N)cc1`: the relative growth is inactive: 0.99.

As for `Cc1ccc(S[C@]2(C(=O)NC(C)C)CC(=O)N(Cc3ccccc3C(F)(F)F)[C@@H]2c2ccc(CO)cc2I)cc1`, the relative growth was inactive: 0.992.

Take `Cc1noc(C)c1NC(=O)N(C)C[C@@H]1OCCCC[C@@H](C)Oc2ccc(NC(=O)Cc3ccccc3)cc2C(=O)N([C@H](C)CO)C[C@H]1C`: the relative growth was inactive: 0.991.

Consider `C#CC1(O)CCC2C3CCc4cc(OC)ccc4C3CCC21C` (stereo unspecified), for which the relative growth is inactive: 0.887.

On to `C[C@H]1CCCCO[C@@H](CN(C)C(=O)Cc2ccccc2)[C@@H](C)CN([C@@H](C)CO)C(=O)c2cc(NS(=O)(=O)c3ccc(F)cc3)ccc2O1`, for which the relative growth was inactive: 0.988.

Take `Cc1ccc(S(=O)(=O)N(C)C[C@@H]2Oc3ccc(NC(=O)CCCN(C)C)cc3C(=O)N([C@H](C)CO)C[C@H]2C)cc1`: the relative growth is inactive: 1.01.

On to `COc1ccc(CN(C)C[C@@H]2Oc3ccc(NC(=O)CCN4CCOCC4)cc3CC(=O)N([C@H](C)CO)C[C@H]2C)cc1`, for which the relative growth is inactive: 1.01.

For `CO[C@H]1CN(C)C(=O)c2ccc(NC(=O)Nc3ccccc3F)cc2OC[C@@H](C)N(Cc2ccccc2C(=O)O)C[C@@H]1C`, the relative growth is inactive: 1.02.

Consider `COc1ccc(CN(C)C[C@@H]2OCCCC[C@@H](C)Oc3ccc(NS(=O)(=O)c4ccc(OC)cc4)cc3C(=O)N([C@H](C)CO)C[C@@H]2C)cc1`, for which the relative growth was inactive: 1.01.

On to `C[C@@H]1CN([C@@H](C)CO)C(=O)c2cc(NC(=O)Nc3ccc(C(F)(F)F)cc3)ccc2O[C@@H](C)CCCCO[C@H]1CN(C)C(=O)C1CCCCC1`, for which the relative growth is inactive: 1.02.

In the case of `CCn1ccnc1CO`, the relative growth was inactive: 0.986.

As to `N=C(N)Nc1nc(=O)c2ccccc2[nH]1`, the relative growth is inactive: 0.99.

Consider `COc1ccc(NC(=O)N(C)C[C@@H]2Oc3ccc(NS(C)(=O)=O)cc3C(=O)N([C@@H](C)CO)C[C@H]2C)cc1`, for which the relative growth was inactive: 0.99.

`CC(C)NC(=O)Nc1ccc2c(c1)C(=O)N([C@H](C)CO)C[C@H](C)[C@H](CN(C)C(=O)Nc1ccc3c(c1)OCO3)O2`: the relative growth is inactive: 0.996.

Take `C[C@@H]1CN([C@H](C)CO)C(=O)c2cccc(NC(=O)c3ccc(-c4nccs4)cc3)c2O[C@H]1CN(C)Cc1ccc2c(c1)OCO2`: the relative growth was inactive: 1.03.

`C[C@@H]1CN([C@@H](C)CO)S(=O)(=O)c2ccc(-c3ccc(C(=O)N(C)C)cc3)cc2O[C@@H]1CN(C)C(=O)C1CC1`: the relative growth was inactive: 0.998.

On to `C[C@H]1CN([C@@H](C)CO)C(=O)c2cccc(NS(=O)(=O)c3ccc(F)cc3)c2O[C@H]1CN(C)S(=O)(=O)c1ccccc1`, for which the relative growth was inactive: 0.999.

For `C[C@@H]1CN([C@H](C)CO)C(=O)CCCn2nncc2CO[C@H]1CN(C)S(=O)(=O)c1ccc(Cl)cc1`, the relative growth is inactive: 1.03.

With `COc1ccc(S(=O)(=O)N(C)C[C@H]2OCCCC[C@H](C)Oc3ccc(NC(=O)Nc4ccc(C(F)(F)F)cc4)cc3C(=O)N([C@H](C)CO)C[C@H]2C)cc1`, the relative growth is inactive: 1.02.

As to `CSC(=N)NCCC[C@H](N)C(=O)O`, the relative growth is inactive: 0.998.

As for `Cc1ccc(S(=O)(=O)Nc2ccc3c(c2)C(=O)N([C@@H](C)CO)C[C@H](C)[C@@H](CN(C)S(C)(=O)=O)O3)cc1`, the relative growth is inactive: 0.982.

For `Cc1noc(C)c1S(=O)(=O)Nc1cccc2c1O[C@@H](CN(C)Cc1ccc3c(c1)OCO3)[C@@H](C)CN([C@@H](C)CO)C2=O`, the relative growth was inactive: 1.01.

As to `Cc1noc(C)c1NC(=O)Nc1ccc2c(c1)CC(=O)N([C@@H](C)CO)C[C@@H](C)[C@H](CN(C)C(=O)Nc1cccc3ccccc13)O2`, the relative growth is inactive: 0.992.

On to `O=C1C(=O)N(C[C@@H](O)COc2cccc3ccccc23)C(=O)C(=O)N1C[C@@H](O)COc1cccc2ccccc12`, for which the relative growth is inactive: 1.01.

Take `C[C@@H]1CCCCO[C@@H](CN(C)Cc2ccccc2)[C@@H](C)CN([C@H](C)CO)C(=O)c2cc(NC(=O)Nc3ccc(C(F)(F)F)cc3)ccc2O1`: the relative growth is inactive: 1.01.

`CN[C@H]1CC[C@@H](c2ccc(Cl)c(Cl)c2)c2ccccc21`: the relative growth is inactive: 0.868.

For `Cc1nc(-c2cccc(F)c2)cs1`, the relative growth was inactive: 0.985.

Regarding `COc1ccc(NC(=O)N(C)C[C@@H]2Oc3ncc(Br)cc3C(=O)N([C@H](C)CO)C[C@@H]2C)cc1`, the relative growth was inactive: 0.983.

Take `COc1ccc(S(=O)(=O)N(C)C[C@@H]2Oc3ccc(NC(=O)NC(C)C)cc3CC(=O)N([C@H](C)CO)C[C@H]2C)cc1`: the relative growth is inactive: 1.

Take `Cc1ccc(S(=O)(=O)N(C)C[C@@H]2Oc3ccc(NC(=O)Cn4cnnn4)cc3C(=O)N([C@H](C)CO)C[C@@H]2C)cc1`: the relative growth is inactive: 1.

Turning to `C[C@H](CO)N1C[C@H](C)[C@H](CN(C)S(=O)(=O)c2cn(C)cn2)Oc2ccc(NC(=O)C3CCCCC3)cc2C1=O`, the relative growth is inactive: 1.01.

As for `Cc1coc(C)c1C(=O)O[C@@H]1O[C@@H](C)[C@H](O)[C@@H](O)[C@H]1O`, the relative growth was inactive: 0.971.
